Source: PubChem BioAssay AID504339 (National Center for Advancing Translational Sciences (NCATS), 2011)
In all, about 390,000 compounds went through this assay and about 17,000 (4.4%) were called active. Inconclusive results, whose numbers are uncertain, are shown with a selection of clear calls. Calls follow the shape of the dose curve; as a rule, active = well fitted inhibition curve with a large enough effect; inconclusive = small, poorly fitted or top-dose-only effect; inactive = no such curve, though single readings can be large or run the other way. A potency beside an inconclusive call is a rough fit, not a confirmed value.

Each compound was assayed against Lysine-specific demethylase 4A (Homo sapiens) (UniProt O75164) (assay: qHTS Assay for Inhibitors of JMJD2A-Tudor Domain). Conditions: AlphaScreen JMJD2A-Tudor / H3K4me3 peptide binding; activity change, negative = inhibition: at 114 µM (top of the series).
% is scaled to controls: 0 for no effect and ±100 for the full control effect; potency is read from the fitted curve at half-maximal effect; tags tell the direction and shape of the fitted curve.
Also: nearly all actives have a fitted effect of over 50% in size.

UniProt O75164, sequence (O75164 whole entry, looked up, the tested form may be a part): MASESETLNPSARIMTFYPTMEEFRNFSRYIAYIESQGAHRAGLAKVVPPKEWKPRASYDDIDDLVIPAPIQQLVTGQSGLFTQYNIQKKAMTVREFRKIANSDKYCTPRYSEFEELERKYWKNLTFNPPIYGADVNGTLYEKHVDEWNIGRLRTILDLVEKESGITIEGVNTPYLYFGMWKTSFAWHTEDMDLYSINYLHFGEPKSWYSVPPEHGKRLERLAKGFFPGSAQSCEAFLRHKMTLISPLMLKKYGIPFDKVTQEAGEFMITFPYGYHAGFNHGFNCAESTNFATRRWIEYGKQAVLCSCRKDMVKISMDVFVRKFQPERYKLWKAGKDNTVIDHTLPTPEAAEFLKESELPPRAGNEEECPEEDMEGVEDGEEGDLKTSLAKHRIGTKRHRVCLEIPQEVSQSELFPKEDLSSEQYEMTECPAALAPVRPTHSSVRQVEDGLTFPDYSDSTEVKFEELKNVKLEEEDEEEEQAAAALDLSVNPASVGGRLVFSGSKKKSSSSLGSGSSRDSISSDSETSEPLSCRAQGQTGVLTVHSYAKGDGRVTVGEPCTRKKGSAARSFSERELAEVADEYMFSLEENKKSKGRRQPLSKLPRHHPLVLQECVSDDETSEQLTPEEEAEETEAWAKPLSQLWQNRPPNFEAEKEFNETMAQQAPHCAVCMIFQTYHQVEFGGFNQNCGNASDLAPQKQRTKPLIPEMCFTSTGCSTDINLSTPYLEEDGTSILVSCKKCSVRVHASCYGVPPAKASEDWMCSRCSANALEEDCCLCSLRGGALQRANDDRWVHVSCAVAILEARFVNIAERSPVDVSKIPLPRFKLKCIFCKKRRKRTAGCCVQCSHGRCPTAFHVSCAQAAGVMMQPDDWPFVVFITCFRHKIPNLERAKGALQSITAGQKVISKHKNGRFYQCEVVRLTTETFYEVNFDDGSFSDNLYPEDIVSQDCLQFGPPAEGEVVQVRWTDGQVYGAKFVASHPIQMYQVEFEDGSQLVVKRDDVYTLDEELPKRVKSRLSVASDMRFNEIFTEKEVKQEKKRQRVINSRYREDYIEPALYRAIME

Potency, inconclusive:
O=C(Nc1ccc(N2CCOCC2)cc1)c1ccc(-c2ccccc2[N+](=O)[O-])o1 25.1 µM [inhibitor, full curve], Cc1cnc(NC(=O)NCC2CCCC(CNC(=O)Nc3ncc(C)s3)C2)s1 (centres undefined) 50.1 µM [inhibitor, partial curve], CC1CCc2[nH]c3ccc(C(=O)N(C)CC(=O)Nc4ccccc4Br)cc3c2C1 (centres undefined) 35.5 µM [inhibitor, partial curve], COc1cccc(/C=N/Nc2nnc(C)n2N)c1O 79.4 µM [inhibitor, single point], CCc1nnc(NC(=O)CSc2nc3[nH]c(=O)cc(O)c3s2)s1 31.6 µM [inhibitor, partial curve, poor fit], O=C(OCC(=O)c1ccc[nH]1)c1ccc2ccccc2n1 39.8 µM [inhibitor, single point], O=C(COc1ccc(/C=N/NC(=O)c2cc3ccccc3o2)cc1Br)Nc1ccccc1 89.1 µM [inhibitor, single point], Cc1cc(C)cc(NC(=O)C2CCCN2S(=O)(=O)c2ccc3nc(-c4ccccc4)[nH]c3c2)c1 (centres undefined) 50.1 µM [inhibitor, partial curve], O=C(CSc1nc(-c2ccccc2F)nc2cc(=O)[nH]n12)Nc1cccc(C(F)(F)F)c1 56.2 µM [inhibitor, partial curve], COc1ccc(C(CCNCc2ccc(OC(C)C)cc2)c2ccccc2OC)cc1 (centres undefined) 31.6 µM [inhibitor, partial curve], COc1ccc(-c2nn(-c3ccccc3)cc2/C=N/N=C(N)N)cc1OC 63.1 µM [inhibitor, partial curve], O=C(CCNC(=O)c1ccc([N+](=O)[O-])cc1)Nc1cccc(S(=O)(=O)N2CCCCC2)c1 79.4 µM [inhibitor, partial curve], CCn1nnnc1SCC(=O)Nc1cc(OC)cc(OC)c1 3.55 µM [inhibitor, single point], Cc1nc(N)[nH]c(=O)c1CCCNc1ccc(CCC2(CCl)OCCO2)cc1 56.2 µM [inhibitor, partial curve], COCCCNC(=O)CC1C[C@H](C(=O)N2CCCCC2)[C@@]2(CCc3ccccc3)c3[nH]c4ccc(OC)cc4c3CCN2C1=O (some centres undefined) 50.1 µM [inhibitor, partial curve], CC1(C(=O)NC(=S)N(CCC#N)c2ccccc2)CC1(Cl)Cl (centres undefined) 100 µM [inhibitor, single point], CCCCn1nnc(NC(=S)NC(=O)c2cccs2)n1 89.1 µM [inhibitor, single point], Clc1ccc(CNc2nc(CN3CCOCC3)nc3scc(-c4ccccc4)c23)cc1 56.2 µM [inhibitor, partial curve], O=C(O)c1c(-c2ccccc2)oc2ccc(OCc3c(F)cccc3Cl)cc12 89.1 µM [inhibitor, single point], Cn1c(=O)c2c(-c3ccc(Br)cc3)n(Cc3ccc(F)cc3)cc2n(C)c1=O 14.1 µM [inhibitor, full curve, poor fit], COc1ccc(N(C)S(=O)(=O)c2cccc(C(=O)N3CCN(Cc4ccc5c(c4)OCO5)CC3)c2)cc1 50.1 µM [inhibitor, partial curve], COc1ccc(C)cc1-n1cnc2cc(C(=O)NC3CCCCCC3)ccc21 28.2 µM [inhibitor, full curve, poor fit], O=C(CSc1nccn1-c1cccc(Cl)c1)Nc1cccc2ccccc12 25.1 µM [inhibitor, full curve], Cc1cc(C(=O)CCC(=O)Nc2ncccc2C)c(C)s1 35.5 µM [inhibitor, partial curve], O=C(O)c1cc(N/N=C/c2c(O)ccc3ccccc23)ccc1Cl 17.8 µM [inhibitor, full curve], Cc1ccc(CSc2nn3c(=O)c(C)nnc3s2)cc1 39.8 µM [inhibitor, single point], Cc1ccc(/C=N/c2sc(Cc3ccccc3)c(C)c2C(N)=O)o1 63.1 µM [inhibitor, partial curve, poor fit], CCN1CCN(Cc2ccc(NC(=O)c3cc(NC(=O)c4ccno4)cc(OC)c3)cc2C(F)(F)F)CC1 25.1 µM [inhibitor, single point], CN1/C(=C\C(=O)Nc2cccnc2)c2ccccc2CC1(C)C 39.8 µM [inhibitor, single point], O=[N+]([O-])c1ccc(-n2nncc2-c2ccc(Cl)cc2)cc1 50.1 µM [inhibitor, partial curve], O=C(NNC(=S)Nc1cccc(C(F)(F)F)c1)c1ccc(Cl)cc1Cl 56.2 µM [inhibitor, partial curve], COc1ccc(C2Nc3ccc(NC(C)=O)cc3C(=O)N2Cc2cccc(Cl)c2)cc1COc1ccc(NC(C)=O)cc1 (centres undefined) 50.1 µM [inhibitor, partial curve], COc1cc(CCCN2CCNC[C@H]2Cc2cccc3ccccc23)cc(OC)c1OC 44.7 µM [inhibitor, partial curve], O=C(Nc1nnc(C2=COCCO2)o1)C1CCCCC1 12.6 µM [inhibitor, partial curve, poor fit], CC(=O)Nc1ccc(Nc2cc(C)nc3c(-c4ccc(Cl)cc4)c(C)nn23)cc1 70.8 µM [inhibitor, single point], NC(=O)NC(=O)C(Nc1ccc(N2CCCCC2)cc1)c1ccccc1 (centres undefined) 56.2 µM [inhibitor, partial curve], CCN(c1ccccc1)S(=O)(=O)c1cc(C(=O)NCc2ccco2)ccc1C 31.6 µM [inhibitor, partial curve], CCOc1ccc(N=C2NC(=O)S/C2=C\c2ccc(N(C)C)cc2)cc1 25.1 µM [inhibitor, partial curve], COc1ccc(OC)c(CNc2nc3ccccc3n2CCN2CCCCC2)c1 56.2 µM [inhibitor, partial curve], Cc1ccc(-n2c(N)c(C(=O)NCc3ccco3)sc2=S)cc1 56.2 µM [inhibitor, partial curve]

Potency, active:
Cc1c(C(=O)O)cccc1-n1c(C)cc(C=O)c1C 50.1 µM, COc1ccc(Cc2nn3c(-c4cc(OC)c(OC)c(OC)c4)nnc3s2)cc1 79.4 µM, Oc1c(CN2CCCCC2)ccc2cccnc12 20 µM, CCCC(C(=O)O)n1c(O)c(C=C2N=c3ccccc3=N2)sc1=S (centres undefined) 20 µM, CC(=O)NC(c1ccc2ccccc2c1)c1ccc2cccnc2c1O (centres undefined) 25.1 µM, CCOC(=O)c1c(CN(C)C)n(C)c2c(O)c(N=NC(N)=O)c3ccc(Br)cc3c12 35.5 µM, Cc1ccc2c(c1)c1c(n2CC(O)CNC2CCCC2)CCCC1 (centres undefined) 17.8 µM, CCN(CC)CCC(c1ccc(N(C)C)cc1)c1c(O)cc(OC)cc1OC (centres undefined) 39.8 µM, Cc1ccc2c(c1)C1(C(=O)N2)N2CCCC2C(C(=O)c2ccc3ccccc3c2)C12C(=O)Nc1ccccc12 (centres undefined) 50.1 µM, COc1ccc(NS(=O)(=O)c2ccc(-c3n[nH]c(=S)n3Cc3ccccc3)cc2)cc1 25.1 µM, CCCNS(=O)(=O)c1cc(CN2C(=O)c3cccnc3C2=O)ccc1OC 89.1 µM, CCN1C(=NCC(C)C)N[C@@H](c2cccc(C(F)(F)F)c2)C(C(=O)OC)=C1C 17.8 µM, COc1cccc(/C=C2\SC(=S)N(CCCC(=O)N3CCCC3)C2=O)c1 44.7 µM, COc1ccc(Nc2nc(-c3cccs3)cs2)c(OC)c1 2.51 µM

Activity change, negative = inhibition, inconclusive:
CC1(c2ccc(OC(F)F)cc2)NC(=O)N(CC(=O)Nc2ccc(N3CCCCC3)cc2)C1=O (centres undefined) -62.8% [inhibitor]

Activity change, negative = inhibition, inactive:
Cc1cc(N2CCN(c3ccc(F)cc3)CC2)n2nc(-c3ccc(Cl)cc3)nc2n1 -4.4%, CCN(CC)c1ccc(C(=O)NNC(=O)CCNC(=O)c2ccccc2)cc1 -8.33%, CCOC(Cn1c(SCc2cc(C(C)=O)ccc2OC)nc2ccccc2c1=O)OCC 0.69%, CC(NC(=O)Cn1c(NCCO)nc2ccccc21)c1ccccc1 (centres undefined) -1.12%, Cc1cc2ccccc2c(=O)n1CC(=O)NCC(=O)N1CCN(c2ccccc2)CC1 -31%, CCCCCCCn1c(C)nnc1-c1cnn(C)c1N -4.93%, OCCCCCNc1ncnc2ccccc12 1.38%, COc1cccc(CNC(=O)CN2C(=O)N(c3ccc(C)cc3C)S(=O)(=O)c3ccccc32)c1OC -21.7%, O=C(COc1coc(CN2CCc3ccccc3C2)cc1=O)N1CCOCC1 -4.29%, O=S(=O)(Nc1ccccc1Cl)c1ccc2[nH]c(=S)oc2c1 -17.9%, Cc1nn(-c2ccccc2)c(C)c1/C=C/C(=O)OCC(=O)Nc1ncc(C(F)(F)F)cc1Cl -12.9%, CC(=O)Nc1cccc(-c2cc(C)c3cc4c(cc3n2)OCO4)c1 -23.5%, COc1cccc(C(=O)CN2CCN(S(=O)(=O)c3ccc(Cl)cc3)CC2)c1 -15.9%, O=C(Nc1ccc2c(c1)CCC2)Nc1ccc(F)cc1F -16%
